Measurements: PubChem BioAssay AID651582 (Sanford-Burnham Center for Chemical Genomics, 2012)
The list shows a part of the results. These are further read-outs of the screen, such as a control signal, another cell line or another target. No call is given for them. Compounds called inactive in the main read-out are mostly missing here.

Experiment: inhibitors of triacylglycerol accumulation, primary screen, cell-based, uHTS, fluorescence, H9c2 (AID 651582)
Conditions: H9c2 cells, Nile Red lipid (TAG) fluorescence; measured here:; at 12.5 µM; cells loaded with 200 µM oleic acid

**Q.** With `Cc1cc(NC(=O)CSc2nc(-c3cccs3)nc3ccccc23)no1` as the molecule, how does the DAPI nuclei signal change (viability), lower = more cytotoxic read?
**A.** The DAPI nuclei signal change (viability), lower = more cytotoxic was -38.6%.

**Q.** For `COc1ccc(NC(=O)Cn2c(=O)n(-c3ccc(CC(=O)NCc4ccco4)cc3)c(=O)c3ccccc32)cc1`, which DAPI nuclei signal change (viability), lower = more cytotoxic is on record?
**A.** The DAPI nuclei signal change (viability), lower = more cytotoxic was -33.9%.

**Q.** Which DAPI nuclei signal change (viability), lower = more cytotoxic does the source give for `Cc1ccc(NC(=O)C(=Cc2ccc(C(=O)O)cc2)C(=O)Nc2ccc(C)cc2C)c(C)c1` here?
**A.** The DAPI nuclei signal change (viability), lower = more cytotoxic was -22.1%.

**Q.** With `O=C(CSc1cccc2cccnc12)Nc1ccc(S(=O)(=O)N2CCOCC2)cc1` as the molecule, how does the DAPI nuclei signal change (viability), lower = more cytotoxic read?
**A.** The DAPI nuclei signal change (viability), lower = more cytotoxic was -46.3%.

**Q.** With `Clc1cccc(Nc2nc(-c3ccncc3)cs2)c1` as the molecule, how does the DAPI nuclei signal change (viability), lower = more cytotoxic read?
**A.** The DAPI nuclei signal change (viability), lower = more cytotoxic was -37.7%.

**Q.** Which DAPI nuclei signal change (viability), lower = more cytotoxic does the source give for `COc1ccc(Cn2c(SCc3cc(C)ccc3C)nc3cc(OC)c(OC)cc3c2=N)cc1` here?
**A.** Its DAPI nuclei signal change (viability), lower = more cytotoxic is -15.8%.

**Q.** Which DAPI nuclei signal change (viability), lower = more cytotoxic does the source give for `Cc1ccc(CN(C(=O)c2csnn2)C(C(=O)NC2CCCC2)c2ccc(C)o2)cc1` (stereo not drawn) here?
**A.** Its DAPI nuclei signal change (viability), lower = more cytotoxic is 0.747%.

**Q.** With `Cc1cc(C)nc(S/C=C/C(=O)c2ccccc2F)n1` as the molecule, how does the DAPI nuclei signal change (viability), lower = more cytotoxic read?
**A.** The DAPI nuclei signal change (viability), lower = more cytotoxic was -47.6%.

**Q.** With `O=C(N/N=C/c1ccc(Cl)cc1)c1n[nH]c2c1CCCC2` as the molecule, how does the DAPI nuclei signal change (viability), lower = more cytotoxic read?
**A.** Its DAPI nuclei signal change (viability), lower = more cytotoxic is -29.7%.

**Q.** Which DAPI nuclei signal change (viability), lower = more cytotoxic does the source give for `c1ccc(N(c2ccccc2)c2nc(N3CCCC3)nc(-n3ccnc3)n2)cc1` here?
**A.** Its DAPI nuclei signal change (viability), lower = more cytotoxic is 4.96%.

**Q.** With `Cc1cc(NC(=O)CSc2nc3ccccc3c(=O)n2C2CCCC2)no1` as the molecule, how does the DAPI nuclei signal change (viability), lower = more cytotoxic read?
**A.** Its DAPI nuclei signal change (viability), lower = more cytotoxic is -38.1%.

**Q.** With `O=[N+]([O-])c1ccc(Nc2nc(NC3CCCCC3)nc(N3CCCC3)n2)cc1` as the molecule, how does the DAPI nuclei signal change (viability), lower = more cytotoxic read?
**A.** Its DAPI nuclei signal change (viability), lower = more cytotoxic is -14.4%.

**Q.** For `O=C(c1ccc(Br)cc1)c1cc([N+](=O)[O-])ccc1N1CCCCC1`, which DAPI nuclei signal change (viability), lower = more cytotoxic is on record?
**A.** Its DAPI nuclei signal change (viability), lower = more cytotoxic is -25.1%.

**Q.** With `COc1ccc(NC(=O)/C(Cl)=C(/Cl)S(=O)Cc2ccccc2)cn1` (stereo not drawn) as the molecule, how does the DAPI nuclei signal change (viability), lower = more cytotoxic read?
**A.** The DAPI nuclei signal change (viability), lower = more cytotoxic was -48.5%.

**Q.** Which DAPI nuclei signal change (viability), lower = more cytotoxic does the source give for `COc1ccc(NC(=O)/C(Cl)=C(/Cl)S(=O)Cc2ccc(Cl)cc2)cn1` (stereo not drawn) here?
**A.** Its DAPI nuclei signal change (viability), lower = more cytotoxic is -37.5%.

**Q.** With `O=C(COc1ccccc1-c1ccccc1)N/N=C/c1cccc2ccccc12` as the molecule, how does the DAPI nuclei signal change (viability), lower = more cytotoxic read?
**A.** The DAPI nuclei signal change (viability), lower = more cytotoxic was -35.2%.

**Q.** Which DAPI nuclei signal change (viability), lower = more cytotoxic does the source give for `Cc1cccc2cc(C#N)c(SCC(=O)NNC(=O)Cc3ccccc3)nc12` here?
**A.** The DAPI nuclei signal change (viability), lower = more cytotoxic was -33%.

**Q.** Which DAPI nuclei signal change (viability), lower = more cytotoxic does the source give for `COc1cc(/C=C2/NC(=O)N(Cc3ccccc3F)C2=O)ccc1O` here?
**A.** The DAPI nuclei signal change (viability), lower = more cytotoxic was -25.4%.

**Q.** For `CN(C)CCn1c2ccccc2c2nc3ccc([N+](=O)[O-])cc3cc21`, which DAPI nuclei signal change (viability), lower = more cytotoxic is on record?
**A.** The DAPI nuclei signal change (viability), lower = more cytotoxic was -35.8%.

**Q.** Which DAPI nuclei signal change (viability), lower = more cytotoxic does the source give for `COc1ccc(C[C@H]2CN3C(=NC[C@@H]3Cc3ccc(O)cc3)N2C[C@H](C)NC(=O)CCC2CCCCC2)cc1` here?
**A.** Its DAPI nuclei signal change (viability), lower = more cytotoxic is -22%.

**Q.** With `Cc1ccc(-n2nc(C(=O)NCc3ccc(C)o3)c3c4ccccc4n(C)c3c2=O)cc1` as the molecule, how does the DAPI nuclei signal change (viability), lower = more cytotoxic read?
**A.** The DAPI nuclei signal change (viability), lower = more cytotoxic was -0.65%.

**Q.** With `CCCCSc1nnc(-c2ccc(NC(=O)CCc3ccccc3)cc2)n1C` as the molecule, how does the DAPI nuclei signal change (viability), lower = more cytotoxic read?
**A.** Its DAPI nuclei signal change (viability), lower = more cytotoxic is 4.73%.

**Q.** For `CC(C)(C)NCCC(O)c1cc(C(F)(F)F)nc2c(C(F)(F)F)cccc12` (stereo not drawn), which DAPI nuclei signal change (viability), lower = more cytotoxic is on record?
**A.** Its DAPI nuclei signal change (viability), lower = more cytotoxic is -18.2%.

**Q.** With `CCc1nc(C)c(C(=O)N2CCCC(C(=O)Nc3cccc(-c4cccc(C)c4)c3)C2)o1` (stereo not drawn) as the molecule, how does the DAPI nuclei signal change (viability), lower = more cytotoxic read?
**A.** The DAPI nuclei signal change (viability), lower = more cytotoxic was 4.2%.

**Q.** Which DAPI nuclei signal change (viability), lower = more cytotoxic does the source give for `COc1ccc2cc3cc(C(=O)Nc4ccccc4N4CCN(C)CC4)oc3nc2c1` here?
**A.** The DAPI nuclei signal change (viability), lower = more cytotoxic was 10.7%.

**Q.** With `COc1ccc(-c2c(C#N)c(N)nc(Sc3ccc(Cl)cc3)c2C#N)cc1` as the molecule, how does the DAPI nuclei signal change (viability), lower = more cytotoxic read?
**A.** The DAPI nuclei signal change (viability), lower = more cytotoxic was -39.8%.

**Q.** With `CCCSc1nc(SCC(=O)NCc2ccccc2)c2c3c(sc2n1)COC(C)(CC)C3` (stereo not drawn) as the molecule, how does the DAPI nuclei signal change (viability), lower = more cytotoxic read?
**A.** The DAPI nuclei signal change (viability), lower = more cytotoxic was -8.52%.

**Q.** For `CCn1ncc(/C=N/N=C2\CCC3C4CCc5cc(O)ccc5C4CCC23C)c1C` (stereo not drawn), which DAPI nuclei signal change (viability), lower = more cytotoxic is on record?
**A.** The DAPI nuclei signal change (viability), lower = more cytotoxic was -26.3%.

**Q.** Which DAPI nuclei signal change (viability), lower = more cytotoxic does the source give for `O=C(CCl)N=c1sccn1Cc1ccccc1Cl` here?
**A.** The DAPI nuclei signal change (viability), lower = more cytotoxic was -28.2%.

**Q.** With `CC(C)c1ccc(C2C3=C(COC3=O)Nc3cc4c(cc32)OCO4)cc1` (stereo not drawn) as the molecule, how does the DAPI nuclei signal change (viability), lower = more cytotoxic read?
**A.** The DAPI nuclei signal change (viability), lower = more cytotoxic was -30.5%.

**Q.** For `Cc1ccc(S(=O)(=O)NC2=C(N3CCN(c4ccccc4F)CC3)C(=O)c3ccccc3C2=O)cc1`, which DAPI nuclei signal change (viability), lower = more cytotoxic is on record?
**A.** The DAPI nuclei signal change (viability), lower = more cytotoxic was -14.4%.

**Q.** Which DAPI nuclei signal change (viability), lower = more cytotoxic does the source give for `COc1ccc(C(=O)N/N=C/c2cc(Br)ccc2O)cc1OC` here?
**A.** Its DAPI nuclei signal change (viability), lower = more cytotoxic is -18.5%.

**Q.** With `CCOc1ccc(CCNC(=O)CN(C)S(=O)(=O)c2cccc3nsnc23)cc1OCC` as the molecule, how does the DAPI nuclei signal change (viability), lower = more cytotoxic read?
**A.** The DAPI nuclei signal change (viability), lower = more cytotoxic was -9.28%.

**Q.** Which DAPI nuclei signal change (viability), lower = more cytotoxic does the source give for `CC(C)(C)OC(=O)N1CCN(c2ccc(NC(=O)Cn3nnc(-c4ccccc4)n3)cc2)CC1` here?
**A.** The DAPI nuclei signal change (viability), lower = more cytotoxic was -9.48%.

**Q.** With `O=c1cc(-c2ccccc2)[nH]c2ccc(F)cc12` as the molecule, how does the DAPI nuclei signal change (viability), lower = more cytotoxic read?
**A.** Its DAPI nuclei signal change (viability), lower = more cytotoxic is -43.4%.

**Q.** With `Cc1cccc(N2CCN(C(=O)CCCn3c(=S)[nH]c4cc5c(cc4c3=O)OCO5)CC2)c1C` as the molecule, how does the DAPI nuclei signal change (viability), lower = more cytotoxic read?
**A.** Its DAPI nuclei signal change (viability), lower = more cytotoxic is -3.89%.

**Q.** With `CC(=O)Nc1ccc(-c2ccnc3c2CC(C(=O)NCc2cccc(Cl)c2)O3)cc1` (stereo not drawn) as the molecule, how does the DAPI nuclei signal change (viability), lower = more cytotoxic read?
**A.** Its DAPI nuclei signal change (viability), lower = more cytotoxic is -39.8%.

**Q.** For `COc1ccc(Cl)cc1NC(=O)CSc1nnc(COc2ccccc2)n1N`, which DAPI nuclei signal change (viability), lower = more cytotoxic is on record?
**A.** The DAPI nuclei signal change (viability), lower = more cytotoxic was -5.51%.

**Q.** With `CN(C)CCNC(=O)C(=O)Nc1ccc2c(c1)N(S(=O)(=O)c1cccs1)CCC2` as the molecule, how does the DAPI nuclei signal change (viability), lower = more cytotoxic read?
**A.** Its DAPI nuclei signal change (viability), lower = more cytotoxic is -26.8%.

**Q.** Which DAPI nuclei signal change (viability), lower = more cytotoxic does the source give for `COc1cc(C(=O)NC2CCN(C)CC2)ccc1Nc1ncc2c(n1)N(C1CCCC1)CCC(=O)N2C(C)C` here?
**A.** The DAPI nuclei signal change (viability), lower = more cytotoxic was -12.5%.

**Q.** With `O=C(Nc1ccc2c(c1)OCCO2)c1cc2sccc2n1Cc1ccccc1` as the molecule, how does the DAPI nuclei signal change (viability), lower = more cytotoxic read?
**A.** The DAPI nuclei signal change (viability), lower = more cytotoxic was -10.6%.

**Q.** For `CC(=O)Nc1sc2c(c1-c1nc3ccccc3s1)CCN(C(C)C)C2`, which DAPI nuclei signal change (viability), lower = more cytotoxic is on record?
**A.** The DAPI nuclei signal change (viability), lower = more cytotoxic was 39.7%.

**Q.** For `CCOc1ccc(Nc2nc(N)nc(CCl)n2)cc1`, which DAPI nuclei signal change (viability), lower = more cytotoxic is on record?
**A.** Its DAPI nuclei signal change (viability), lower = more cytotoxic is -19%.

**Q.** With `Clc1ccc(C2=Nn3c(nnc3-c3n[nH]c4c3CCC4)SC2)cc1` as the molecule, how does the DAPI nuclei signal change (viability), lower = more cytotoxic read?
**A.** The DAPI nuclei signal change (viability), lower = more cytotoxic was -14.9%.

**Q.** With `CCN1CCN(Cc2ccc(NC(=O)c3cc(NC(=O)c4cncc(-c5cccs5)c4)cc(OC)c3)cc2C(F)(F)F)CC1` as the molecule, how does the DAPI nuclei signal change (viability), lower = more cytotoxic read?
**A.** The DAPI nuclei signal change (viability), lower = more cytotoxic was 20.3%.

**Q.** With `c1ccc(Oc2nc(-c3ccccn3)nc3ccccc23)cc1` as the molecule, how does the DAPI nuclei signal change (viability), lower = more cytotoxic read?
**A.** The DAPI nuclei signal change (viability), lower = more cytotoxic was -44.2%.

**Q.** Which DAPI nuclei signal change (viability), lower = more cytotoxic does the source give for `CCOC(=O)CSc1cccc2cccnc12` here?
**A.** Its DAPI nuclei signal change (viability), lower = more cytotoxic is -47.9%.

**Q.** For `CCO[C@@H]1OC(C(=O)NCc2nc3ccccc3[nH]2)=C[C@H](c2cn(C(C)=O)c3ccccc23)[C@H]1CCCO`, which DAPI nuclei signal change (viability), lower = more cytotoxic is on record?
**A.** The DAPI nuclei signal change (viability), lower = more cytotoxic was -11.9%.
